{
  "source": "PubChem BioAssay AID504332",
  "about": "(National Center for Advancing Translational Sciences (NCATS), 2011)",
  "note": "Several values for one entry are separate records, joined by “and”; a condition that tells them apart may be missing. Equal entries are not always repeated. About 31,000 (8.9%) of roughly 350,000 compounds were called active. Inconclusive results, whose numbers are uncertain, are shown with a selection of clear calls. The call rests on the fitted dose curve; in most records, active means well fitted inhibition curve with a large enough effect; inconclusive means small, poorly fitted or top-dose-only effect; inactive means no such curve, though single readings can be large or run the other way. Potencies beside an inconclusive call are fits to weak or partial responses and may not hold up. On the % scale 0 is the no-effect control and ±100 the full control effect; potency means the concentration at half of the fitted maximal effect; tags describe the fitted curve by direction and shape.",
  "data": [
    {"target": "Histone-lysine N-methyltransferase EHMT2 (Homo sapiens) (UniProt Q96KQ7)", "sequence (Q96KQ7 whole entry, looked up)": "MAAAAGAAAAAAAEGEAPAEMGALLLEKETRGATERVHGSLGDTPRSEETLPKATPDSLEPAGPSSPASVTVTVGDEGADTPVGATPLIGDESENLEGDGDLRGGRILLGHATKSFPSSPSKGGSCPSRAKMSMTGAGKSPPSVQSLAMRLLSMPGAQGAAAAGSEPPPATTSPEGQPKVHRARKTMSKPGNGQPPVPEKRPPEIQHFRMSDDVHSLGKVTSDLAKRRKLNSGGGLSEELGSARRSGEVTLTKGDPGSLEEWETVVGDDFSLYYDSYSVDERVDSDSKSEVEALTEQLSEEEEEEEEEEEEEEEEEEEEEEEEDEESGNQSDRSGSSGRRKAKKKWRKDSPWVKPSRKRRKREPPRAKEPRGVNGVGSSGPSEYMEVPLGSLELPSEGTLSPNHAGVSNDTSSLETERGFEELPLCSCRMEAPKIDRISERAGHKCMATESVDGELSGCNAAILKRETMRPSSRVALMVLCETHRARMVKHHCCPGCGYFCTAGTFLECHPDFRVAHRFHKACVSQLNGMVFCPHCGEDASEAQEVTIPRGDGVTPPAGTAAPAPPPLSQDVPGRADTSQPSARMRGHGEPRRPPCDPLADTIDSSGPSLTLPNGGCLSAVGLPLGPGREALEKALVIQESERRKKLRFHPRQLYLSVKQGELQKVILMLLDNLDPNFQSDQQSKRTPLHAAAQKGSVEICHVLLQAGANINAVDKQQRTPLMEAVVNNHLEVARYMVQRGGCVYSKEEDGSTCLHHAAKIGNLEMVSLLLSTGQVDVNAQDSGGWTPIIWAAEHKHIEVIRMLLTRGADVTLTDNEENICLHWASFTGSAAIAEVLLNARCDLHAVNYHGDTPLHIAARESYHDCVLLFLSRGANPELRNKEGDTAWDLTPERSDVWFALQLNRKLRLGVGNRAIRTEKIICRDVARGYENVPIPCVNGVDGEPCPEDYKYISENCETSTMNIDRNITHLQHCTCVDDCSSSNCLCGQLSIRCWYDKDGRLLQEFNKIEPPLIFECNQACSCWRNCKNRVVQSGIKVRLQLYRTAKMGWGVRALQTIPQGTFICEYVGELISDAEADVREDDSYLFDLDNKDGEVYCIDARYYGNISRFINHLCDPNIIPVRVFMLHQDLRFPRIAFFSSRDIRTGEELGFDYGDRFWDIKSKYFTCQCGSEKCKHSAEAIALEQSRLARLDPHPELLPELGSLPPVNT", "assay": "qHTS Assay for Inhibitors of Histone Lysine Methyltransferase G9a; further: nearly all actives have a fitted effect of over 75% in size", "conditions": "G9a H3K9 monomethylation, AlphaScreen, 2 h; activity, negative = inhibition: at 59 µM (top of the series) unless noted", "procedure,_shortened": "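AlphaScreen read-out: biotin-H3K9 peptide (500 nM) methylation by 20 nM enzyme with 20 uM SAM, 2 h at room temperature after 15 min compound preincubation; anti-monomethyl H3K9 antibody plus donor/acceptor beads, 10 min dark.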", "values": [
      {"smiles": "CCc1ccccc1NC(=O)Cn1nnc(C(=O)Nc2ccc(OC)c(OC)c2)c1N", "activity, negative = inhibition": "inactive: -4.17%"},
      {"smiles": "CC(=O)NC1=NC(=O)/C(=C/c2cn(C(C)=O)nc2-c2ccccc2)S1", "Potency": "active: 8.91 µM"},
      {"smiles": "CC(C)Cn1c(Br)nc2c1c(=O)n(CCC#N)c(=O)n2C", "Potency": "inconclusive: 39.8 µM [inhibitor, partial curve, poor fit]"},
      {"smiles": "CC(C(=O)OCC(=O)c1ccc([N+](=O)[O-])cc1)N1C(=O)C2C3C=CC(C3)C2C1=O", "note": "(stereo unspecified)", "Potency": "inconclusive: 89.1 µM [inhibitor, single point]"},
      {"smiles": "CC(C)CCNC1c2ccccc2C(=O)N1Cc1ccccc1", "note": "(stereo unspecified)", "Potency": "inconclusive: 89.1 µM [inhibitor, single point]"},
      {"smiles": "CCOC(=O)C1CCCN(CC(=O)NC2=Nc3ccccc3N=C(C)C2c2ccccc2)C1", "note": "(stereo unspecified)", "activity, negative = inhibition": "inconclusive: -53.2% [inhibitor]"},
      {"smiles": "CCCC(C)c1nc(C(N)=O)c2[nH]c(=O)n(-c3ccc(OC)cc3OC)c2n1", "note": "(stereo unspecified)", "activity, negative = inhibition": "inactive: -4.95% [at 102 µM]"},
      {"smiles": "CCCCC(=O)N(c1ccc(C(=O)O)cc1)c1nc(-c2ccc(Cl)cc2)c(CC)s1", "activity, negative = inhibition": "inconclusive: -70.2% [inhibitor]"},
      {"smiles": "COc1ccccc1/C=N/NC(=O)c1nnn(-c2nonc2N)c1-c1cccs1", "activity, negative = inhibition": "inactive: 12.5% [at 102 µM]"},
      {"smiles": "CC1(C)CC(=O)C2=C(C1)c1c(ccc3ccccc13)NC2c1cc([N+](=O)[O-])cc([N+](=O)[O-])c1O", "note": "(stereo unspecified)", "activity, negative = inhibition": "inconclusive: -81.9% [inhibitor] [at 12.7 µM]"},
      {"smiles": "COc1ccc(-n2ncc(C(=O)NCCCN3CCCCC3)c2C2CCN(C(=O)OC(C)(C)C)CC2)cc1", "activity, negative = inhibition": "inactive: -8.88%"},
      {"smiles": "Cc1c(NC(=O)C(F)(F)F)ccc2nc3c(=O)n(C)c(=O)n(C)c3nc12", "activity, negative = inhibition": "inactive: -35.8%"},
      {"smiles": "COc1ccc(-c2cc(C(F)(F)F)nc(SCCC(=O)N3CCN4CCCC4C3)n2)cc1", "note": "(stereo unspecified)", "Potency": "inconclusive: 39.8 µM [inhibitor, single point]"},
      {"smiles": "COc1ccc(CNC(=O)CS(=O)CC(=O)O)cc1OC", "note": "(stereo unspecified)", "Potency": "inconclusive: 79.4 µM [inhibitor, single point]"},
      {"smiles": "CCOc1ccc(S(=O)(=O)n2nnc3ccccc32)cc1C", "Potency": "inconclusive: 89.1 µM [inhibitor, partial curve, poor fit]"},
      {"smiles": "COc1ccc(/C=N/N=C2/NC(=O)C(CC(=O)O)S2)cc1OS(=O)(=O)c1ccccc1", "note": "(stereo unspecified)", "Potency": "inconclusive: 22.4 µM [inhibitor, partial curve, poor fit]"},
      {"smiles": "COc1cccc(NC(=S)/C(=C(\\[O-])c2ccc(C)c([N+](=O)[O-])c2)[n+]2ccccc2)c1", "Potency": "inconclusive: 3.16 µM [inhibitor, single point]"},
      {"smiles": "C#CCNC(=O)C1=C[C@@H](C2CC2)C[C@@H](OCc2ccc(CO)cc2)O1", "activity, negative = inhibition": "inconclusive: -67.8% [inhibitor]"},
      {"smiles": "COc1ccc(N2C(=O)CC(n3cnc4ccccc43)C2=O)cc1", "note": "(stereo unspecified)", "Potency": "inconclusive: 89.1 µM [inhibitor, single point]"},
      {"smiles": "COC(=O)c1nn(-c2ccc(OC)cc2)c(=O)c2c(N)sc(C)c12", "Potency": "active: 10 µM"},
      {"smiles": "CCOC(=O)C(=O)Nc1ccc(Oc2ccccc2)cc1", "Potency": "inconclusive: 28.2 µM [inhibitor, single point]"},
      {"smiles": "Cn1c(=O)c2c(n(Cc3ccccc3)c1=O)NC(=O)C2CC(=O)N1CCc2ccccc2C1", "note": "(stereo unspecified)", "Potency": "inconclusive: 39.8 µM [inhibitor, single point]"},
      {"smiles": "COCCCNC(=S)N(CCN(C)C)Cc1cc2cc3c(cc2[nH]c1=O)OCCO3", "Potency": "active: 35.5 µM"},
      {"smiles": "COc1ccc(-n2c(=S)[nH]c3cc(C(=O)NCc4ccco4)ccc3c2=O)c(OC)c1", "Potency": "inconclusive: 8.91 µM [inhibitor, partial curve, poor fit]"},
      {"smiles": "O=C(O)COc1ccccc1C1Nc2ccccc2-c2nnc(SCc3ccc(Cl)cc3)nc2O1", "note": "(stereo unspecified)", "Potency": "inconclusive: 10 µM [inhibitor, partial curve, poor fit]"},
      {"smiles": "Clc1cccc(Cl)c1-c1nnc2ccc(N3CCOCC3)nn12", "Potency": "inconclusive: 22.4 µM [inhibitor, single point]"},
      {"smiles": "CC1CCCN(C(=O)C2CCN(Cc3ccc4c(c3)OCO4)CC2)C1", "note": "(stereo unspecified)", "Potency": "active: 50.1 µM"},
      {"smiles": "Cc1[nH]nc2nc3c(c(OC(=O)c4ccccc4)c12)c(=O)n(C)c(=O)n3C", "Potency": "inconclusive: 89.1 µM [inhibitor, single point]"},
      {"smiles": "O=C(COC(=O)COc1ccc(Br)cc1)NCCC1=CCCCC1", "activity, negative = inhibition": "inactive: 22.5%"},
      {"smiles": "COc1ccccc1N1CCN(C(=O)c2cc3n(n2)C(C(F)(F)F)CC(c2ccco2)N3)CC1", "note": "(stereo unspecified)", "Potency": "inconclusive: 8.91 µM [inhibitor, partial curve]"},
      {"smiles": "C/C=C/C(=O)Nc1nnc(C2CCCCC2)s1", "Potency": "inconclusive: 50.1 µM [inhibitor, partial curve, poor fit]"},
      {"smiles": "Oc1cccc(Nc2cc(-c3ccccc3)ncn2)c1", "Potency": "inconclusive: 28.2 µM [inhibitor, partial curve, poor fit]"},
      {"smiles": "O=C(CNC(=O)c1ccccc1F)N/N=C/c1cccnc1", "activity, negative = inhibition": "inactive: 9.82% [at 102 µM]"},
      {"smiles": "CCOc1ccccc1NC(=O)CCCCCN1C(=O)[C@@H]2Cc3ccccc3CN2C1=O", "Potency": "inconclusive: 89.1 µM [inhibitor, single point]"},
      {"smiles": "O=C1CCCc2nc(N3CCN(C(c4ccccc4)c4ccccc4)CC3)ncc21", "Potency": "inconclusive: 50.1 µM [inhibitor, partial curve]"},
      {"smiles": "O=S(=O)(Nc1nnc(C2CCCCC2)s1)c1ccc(F)cc1", "Potency": "inconclusive: 70.8 µM [inhibitor, single point]"},
      {"smiles": "Cc1cc(C(=O)CN2C(=O)NC3(CCCc4sccc43)C2=O)c(C)n1-c1ccccc1", "note": "(stereo unspecified)", "Potency": "inconclusive: 39.8 µM [inhibitor, single point]"},
      {"smiles": "O=C(O)c1cccc(-n2cccc2/C=N/O)c1", "Potency": "inconclusive: 39.8 µM [inhibitor, partial curve, poor fit]"},
      {"smiles": "Cc1[nH]c2ccccc2c(=O)c1CN1CCCCCC1", "Potency": "inconclusive: 56.2 µM [inhibitor, partial curve, poor fit]"},
      {"smiles": "CC(C)c1nc2cc(C(=O)N3CCN(c4cnccn4)CC3)ccc2o1", "Potency": "inconclusive: 89.1 µM [inhibitor, single point]"},
      {"smiles": "N#C/C(=C\\c1ccc(N2CCCCC2)o1)C(=O)Nc1cccc(Br)c1", "Potency": "inconclusive: 25.1 µM [inhibitor, single point]"},
      {"smiles": "COc1cc(/C=N/NC(=O)c2ccc(C)nc2)cc([N+](=O)[O-])c1O", "Potency": "inconclusive: 56.2 µM [inhibitor, single point]"},
      {"smiles": "O=C(Nc1cccc(O)c1)c1cc(-c2ccccc2F)no1", "Potency": "inconclusive: 10 µM [inhibitor, partial curve, poor fit]"},
      {"smiles": "COc1ccc(/C=C2/C(=O)N(c3ccccc3)N=C2C)cc1Br", "Potency": "active: 35.5 µM"},
      {"smiles": "CC(C)C(=O)Nc1cccc(NC(=S)NC(=O)c2ccc(Cl)cc2)c1", "activity, negative = inhibition": "inactive: -48.7%"},
      {"smiles": "COc1ccc(NC(=O)CN2C(=O)CSC(C)C2=O)cc1", "note": "(stereo unspecified)", "activity, negative = inhibition": "inactive: -1.97% [at 102 µM]"},
      {"smiles": "CSCCC(N=C1NS(=O)(=O)c2ccccc21)C(=O)NCCc1ccccc1", "note": "(stereo unspecified)", "activity, negative = inhibition": "inactive: 5.56% [at 102 µM]"},
      {"smiles": "O=C1Nc2cc(Cl)cnc2N2CCCC12", "note": "(stereo unspecified)", "Potency": "active: 8.91 µM"},
      {"smiles": "O=[N+]([O-])c1ccc(-c2ccc(S(=O)(=O)NCCN3CCCC3)cc2)cc1", "Potency": "inconclusive: 79.4 µM [inhibitor, single point]"},
      {"smiles": "N#C/C(C(=O)NCc1ccccc1)=C1/N=C(NC(=O)c2ccco2)c2ccccc21", "Potency": "inconclusive: 39.8 µM [inhibitor, partial curve]"},
      {"smiles": "Fc1ccc(C[n+]2csc3ccccc32)cc1", "Potency": "inconclusive: 0.708 µM [inhibitor, full curve, poor fit]"},
      {"smiles": "Cn1nc(C(=O)NCCc2ccc3c(c2)OCCO3)c2ccccc2c1=O", "Potency": "inconclusive: 50.1 µM [inhibitor, partial curve, poor fit]"},
      {"smiles": "COC(=O)CCSc1cc([N+](=O)[O-])cc2c1c(C1OCCO1)nn2-c1ccccc1", "Potency": "inconclusive: 22.4 µM [inhibitor, single point]"},
      {"smiles": "CCN1CCN(c2ccc(NC(=O)c3cccc(F)c3)cc2Cl)CC1", "activity, negative = inhibition": "inactive: -1.16% [at 102 µM]"},
      {"smiles": "CCOC(=O)N1CCN(CC(O)COc2c(C)cccc2C)CC1", "note": "(stereo unspecified)", "Potency": "inconclusive: 3.98 µM [inhibitor, single point]"},
      {"smiles": "CCOC(=O)C1CCCN(C(=O)Cn2ncc3c4ccccc4n(C)c3c2=O)C1", "note": "(stereo unspecified)", "activity, negative = inhibition": "inactive: -25.1%"},
      {"smiles": "CN(C)c1cccc(C(=O)OC(C(=O)Nc2ccc([N+](=O)[O-])cc2Br)c2ccccc2)c1", "note": "(stereo unspecified)", "Potency": "inconclusive: 31.6 µM [inhibitor, full curve]"},
      {"smiles": "Cc1cc(C)nc(N/N=C2/CCSc3ccc(F)cc32)n1", "Potency": "active: 35.5 µM"},
      {"smiles": "Cc1cccc(C=Nc2ccc3c4c(cccc24)CC3)c1O", "Potency": "inconclusive: 35.5 µM [inhibitor, single point]"},
      {"smiles": "O=C(Nc1cc(S(=O)(=O)N2CCOCC2)ccc1Cl)C(=O)c1c(-c2ccccc2)cc2ccccn12", "Potency": "inconclusive: 5.62 µM [inhibitor, single point]"},
      {"smiles": "COc1ccc(C(C)=O)cc1COc1ccc(-n2cnnn2)cc1", "Potency": "inconclusive: 1.12 µM [inhibitor, full curve, poor fit]"},
      {"smiles": "c1ccc2c(NCCN3CCOCC3)nc(-c3ccoc3)nc2c1", "activity, negative = inhibition": "inactive: -3.79% [at 0.501 µM]"},
      {"smiles": "COc1ccc(NC(=O)C2CC(=O)n3cnnc3S2)cc1", "note": "(stereo unspecified)", "Potency": "inconclusive: 0.794 µM [inhibitor, full curve, poor fit]"},
      {"smiles": "CCOC(=O)COc1cc(=O)n(CC)c2ccccc12", "Potency": "inconclusive: 89.1 µM [inhibitor, single point]"},
      {"smiles": "CN1CCc2c(c3ccccc3n2Cc2ccccc2)C1", "Potency": "inconclusive: 8.91 µM [inhibitor, single point] and inconclusive: 56.2 µM [inhibitor, partial curve, poor fit]"},
      {"smiles": "COc1cc(O)ccc1-c1nc2cc(C)ccn2c1Nc1ccccc1C", "Potency": "inconclusive: 22.4 µM [inhibitor, single point]"}
    ]}
  ]
}
